Test results: patent US20230117205A1 (Seagen, published 2023)

T1: recombinant human B7-H4 protein (B7-H4 extracellular domain Phe29-Ala258 with a C-terminal 10-His tag) (human, UniProt Q7Z7D3 29-258, NHS-biotinylated in the bivalent BLI format only)
T1 construct: also called hB7-H4; hB7-H4 His antigen; not shown: C-terminal 10-His tag
T1 sequence: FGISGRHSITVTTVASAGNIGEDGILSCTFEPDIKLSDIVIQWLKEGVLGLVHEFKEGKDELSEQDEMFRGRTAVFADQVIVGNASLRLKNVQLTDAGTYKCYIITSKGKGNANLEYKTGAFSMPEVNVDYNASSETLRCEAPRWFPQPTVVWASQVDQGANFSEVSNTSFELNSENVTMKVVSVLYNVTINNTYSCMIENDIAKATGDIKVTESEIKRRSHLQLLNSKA

T2: human B7-H4 on cells (human, UniProt Q7Z7D3 25-282)
T2 construct: no signal peptide limits are stated; also called hB7-H4; B7-H4-expressing SKBR3 cells
T2 sequence: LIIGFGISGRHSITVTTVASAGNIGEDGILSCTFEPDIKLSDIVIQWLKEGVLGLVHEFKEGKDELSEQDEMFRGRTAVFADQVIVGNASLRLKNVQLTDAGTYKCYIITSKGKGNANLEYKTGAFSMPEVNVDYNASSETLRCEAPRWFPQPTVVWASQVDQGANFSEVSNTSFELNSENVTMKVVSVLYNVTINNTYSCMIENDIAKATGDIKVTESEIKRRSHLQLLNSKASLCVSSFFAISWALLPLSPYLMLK

B1: B7H41001 mAb (antibody, human IgG1, kappa)
heavy: QLQLQESGPGLVKPSETLSLTCTVSGGSIKSGSYYWGWIRQPPGKGLEWIGNIYYSGSTYYNPSLRSRVTISVDTSKNQFSLKLSSVTAADTAVYYCAREGSYPNQFDPWGQGTLVTVSS[human IgG1 constant region not listed]
light: EIVMTQSPATLSVSPGERATLSCRASQSVSSNLAWYQQKPGQAPRLLIYGASTRATGIPARFSGSGSGTEFTLTISSLQSEDFAVYYCQQYHSFPFTFGGGTKVEIKRTVAAPSVFIFPPSDEQLKSGTASVVCLLNNFYPREAKVQWKVDNALQSGNSQESVTEQDSKDSTYSLSSTLTLSKADYEKHKVYACEVTHQGLSSPVTKSFNRGEC
modifications: most abundant form: C-terminal lysine removed, N-terminal glutamine cyclized to pyroglutamic acid, Asn300 occupied by biantennary core fucosylated glycans
notes: Fully human, fucosylated anti-B7-H4 IgG1 kappa; two heavy chains (450 residues) and two light chains (214 residues); also called unconjugated mAb B7H41001; unconjugated antibody
B2: SGN-B7H4V (antibody, human IgG1, kappa)
heavy: B1 heavy
light: B1 light
modifications: vcMMAE may be attached through cysteine sulfur; positions not given; vcMMAE (MC-Val-Cit-PABC-MMAE, vedotin) attached through cysteine sulfur; positions not given
notes: also called ADC; B7-H4-ADC

Assays:
[1] = molecular target: T1, recombinant human B7-H4 protein (B7-H4 …); test: BLI (Octet HTX), monovalent format: mAb captured on anti-human Fc (AHC) biosensors, hB7-H4 His antigen in solution, 30 C, 1:1 fit
[2] = molecular target: T3, hscFcRN (biotinylated avi-tagged, fused with monomeric Fc) (human, UniProt P55899 part only; P61769 part only, limits assumed, biotin on avi tag); test: BLI (Octet HTX), biotinylated hscFcRN on streptavidin biosensors, antibody in solution, pH 6.0, 30 C, 1:1 fit
T3 construct: Designed and expressed at Seagen; also called hscFcRN hmFc IHH A avi Biotin; hFcRN

[3] = molecular target: T1, recombinant human B7-H4 protein (B7-H4 …); test: BLI (Octet HTX), bivalent format (biotinylated hB7-H4 His on streptavidin biosensors, 37 C) against monovalent format (antibody on anti-human Fc biosensors, 30 C)
[4] = molecular target: T1, recombinant human B7-H4 protein (B7-H4 …); test: BLI (Octet HTX), bivalent format: NHS-biotinylated hB7-H4 His antigen on streptavidin (SAX) biosensors, mAb in solution, 37 C, 1:1 fit
human B7-H4 on cells [5] = molecular target: T2, human B7-H4 on cells; test: flow cytometry saturation binding on SKBR3 cells, right panel
human B7-H4 on cells [6] = molecular target: T2, human B7-H4 on cells; test: flow cytometry saturation binding on SKBR3 cells, left panel
[7] = molecular target: T1, recombinant human B7-H4 protein (B7-H4 …); test: BLI (Octet HTX), bivalent format (biotinylated hB7-H4 His on streptavidin biosensors, 37 C) against monovalent format (ADC on anti-human Fc biosensors, 30 C)
[8] = molecular target: T1, recombinant human B7-H4 protein (B7-H4 …); test: BLI (Octet HTX), bivalent format: NHS-biotinylated hB7-H4 His antigen on streptavidin (SAX) biosensors, ADC in solution, 37 C, 1:1 fit
[9] = molecular target: T1, recombinant human B7-H4 protein (B7-H4 …); test: BLI (Octet HTX), monovalent format: ADC captured on anti-human Fc (AHC) biosensors, hB7-H4 His antigen in solution, 30 C, 1:1 fit
[10] = molecular target: T3, hscFcRN (biotinylated avi-tagged, fused …); test: BLI (Octet HTX), biotinylated hscFcRN on streptavidin biosensors, ADC in solution, pH 6.0, 30 C, 1:1 fit

T3 sequence (P55899 24-297 limits assumed, form in doubt, chain 1 of 2): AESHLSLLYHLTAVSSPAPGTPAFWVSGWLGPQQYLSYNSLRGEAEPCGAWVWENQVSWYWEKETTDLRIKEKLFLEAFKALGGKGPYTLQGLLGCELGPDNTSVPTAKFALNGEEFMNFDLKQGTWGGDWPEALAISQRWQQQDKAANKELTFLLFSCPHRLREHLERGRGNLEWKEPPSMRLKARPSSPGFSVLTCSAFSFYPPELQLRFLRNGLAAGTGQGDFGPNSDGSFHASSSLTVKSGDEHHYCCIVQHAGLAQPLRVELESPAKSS
T3 sequence (P61769 21-119 limits assumed, form in doubt, chain 2 of 2, further chain): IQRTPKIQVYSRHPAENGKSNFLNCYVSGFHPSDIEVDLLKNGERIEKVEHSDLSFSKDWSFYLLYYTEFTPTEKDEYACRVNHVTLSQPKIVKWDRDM

Row | Binder | Kd [1] [nM] | Kd [2] [nM] | fold enhancement of affinity, bivalent format compared to monovalent format [3] [fold] | Kd [4] [nM] | EC50 (read off the curve) (human B7-H4 on cells [5]) [nM] | EC50 (read off the curve) (human B7-H4 on cells [6]) [nM] | fold enhancement of affinity, bivalent format compared to monovalent format [7] [fold] | Kd [8] [nM] | Kd [9] [nM] | Kd [10] [nM]
1 | B1 | 6.1 | 17.5 | 231 | 0.026 | ~3 | ~3 |  |  |  | 
2 | B2 |  |  |  |  | ~1 | ~2 | 395 | 0.022 | 8.7 | 15.6
